In the supplement of paper PMC3334620:
Whole data set: some 33,000 sequences, median “E-score (-0.5 to 0.5)” near -0.016, cut for the highest 2% near 0.31. Some of the results follow.

The sequences below were run against Cst6 (UniProt P40535) (assay: PBM E-score (8-mer binding enrichment) (E-score (-0.5 to 0.5)); higher = stronger / more preferred TF binding; most listed sequences are background and not binding sites). Settings: protein concentration: 200 nM; construct: GST-DNA-binding domain.
How it was run: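 Universal all-10-mer Agilent arrays, fresh or stripped once, were converted to double-stranded form by primer extension. GST-tagged yeast transcription factors from PURExpress in vitro transcription/translation, full-length or DNA-binding domain only, were applied at about 100-200 nM and detected with fluorescent anti-GST. After masliner normalisation, the Universal PBM Analysis Suite scored each ungapped eight-base word together with its reverse complement by E-score.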

Sequence | PBM E-score
GTGTCAAA | 0.132
AAAGGCCG | -0.0945
ACGAGACA | -0.0189
CATCTATA | 0.162
CCGCCCGG | -0.107
GAGCAGTA | 0.0605
GCCTCAGC | -0.06
AATTATGC | 0.207
CTACTTTA | 0.0594
CTCGTGTC | -0.0541
TGAGTCAA | 0.041
AGCCAGCA | -0.332
AACGGTAC | 0.167
AATGATCA | 0.118
GCATTCGC | -0.333
AAGATTCT | -0.0651
GGATGTAC | -0.0995
GTTCACGA | -0.0448
CTCTACAG | -0.036
CAGTTCTA | -0.0942
ATGGCTAA | 0.00459
ATAGCTAA | -0.13
AAACGCGG | 0.145
CGTTAGTC | -0.095
ATCTCCCG | -0.163

Sequence | PBM E-score
ACTAGGAA | -0.163
CCGCCGAC | -0.261
ATCGAATC | 0.113
GCAAATGC | 0.0351
AATTAGGT | 0.151
CGGACGTA | 0.187
AGCGACCA | -0.172
CTCTGAAA | -0.0419
ATTAAGCC | 0.0234
GTGGCTGA | -0.0339
GTAGGGAA | -0.103
GTCTTACA | 0.0773
ACAGCTTC | -0.14
CAAAACCA | 0.116
GAATCTTA | 0.176
ATAAGTGC | -0.0634
GATTCACA | -0.0103
AAAACCTG | -0.0979
GTCTCAAA | 0.0686
CCCTCGTC | -0.0534
CGTCCTGA | 0.0582
CTCAAAAC | 0.175
CGGGATGA | 0.0154
CAGTTTAG | -0.044
CAAACCTC | -0.272

Sequence | PBM E-score
AACGCTCA | -0.065
CCACTTAG | -0.16
CCTGCCCC | -0.337
CTATTATC | 0.198
CTCTAAGA | -0.022
GACTCAAA | -0.0282
CAATCTGC | -0.0282
GATGAGTA | 0.123
CAGCGTCC | -0.207
CAAACACC | -0.0632
ATTCCGGC | -0.169
AATTTGTA | 0.197
TAGCTCGA | -0.171
CCTTCTGC | -0.255
AATTCGCG | 0.165
AGGATAAA | 0.079
ACCAACGC | -0.192
AGGAAACA | 0.14
CTGATGGC | -0.113
ATTGTTAG | 0.129
GTATTCTA | 0.223
AATCAGCA | 0.157
ACAACATA | 0.204
GACGACCA | 0.0279
CTGCTCAC | -0.111

Sequence | PBM E-score
GAACTGTA | 0.137
CTGTCAAC | 0.082
GGCATCAA | 0.0768
CAAATAGG | 0.00845
CCATCACG | 0.0583
ACACGACC | -0.0934
GTAGTGCA | -0.0152
AGACTTGG | -0.29
GCCGGTAA | -0.0726
CCGGCCTC | -0.315
CATCTCGA | -0.0257
ATAGTTCC | -0.0337
AACTAACT | 0.00159
GCAGAACC | -0.134
CAAATTCG | 0.054
TCAAAAGA | 0.0475
ACCTGCGA | -0.26
ACTCGATG | 0.0543
CAGGCCTG | -0.137
CGCAGGGA | -0.217
CCTCAGGA | -0.135
AAAACCCA | 0.0969
GCTCGCAA | 0.0482
ACTGGGTG | -0.142
ACTCTTTC | 0.0185

Sequence | PBM E-score
CCTTCTGA | -0.0392
ATCTAGAA | 0.0563
ATGATAAA | 0.307
CCCCAAAA | -0.0256
ATATACGG | 0.194
CATCTAGG | -0.153
CTTCGTAA | -0.0175
CCTAATAA | 0.00168
ATAAGCCC | -0.212
GGATACGA | -0.0261
GACAGAGC | -0.182
AACTGGGA | -0.0713
GCTACCCA | -0.317
AAAAAGGG | 0.0128
AGGGAAAA | 0.0747
AGAGGGTC | -0.381
CTGCATTC | -0.0773
CAACACAC | 0.0848
AAGTCGTC | -0.0649
TACCCCTA | -0.135
ATATCAAA | 0.153
TAGATCTA | 0.154
AGCCGTTC | 0.0848
CGCAAGCG | -0.1
GGTCGGAC | -0.199

Sequence | PBM E-score
AGTGTAGA | -0.102
GCACACGA | -0.0195
CGAGGGCA | -0.0872
ATCGCTAA | 0.0468
ACACAACG | 0.21
ACTAGACC | 0.0503
AACTCGCC | -0.0101
ATCGGTGC | -0.112
AATCATTC | 0.204
ACTTACCG | 0.108
CACCTGTA | -0.171
GGAGGCAC | 0.00729
ATACAAAG | 0.151
AAGCCGTA | 0.173
GTGGGTCA | -0.138
AAGGCAGT | 0.0518
AAGGCATA | 0.0537
ACGCATGG | -0.0922
GATATCGC | 0.1
ACGTACGG | 0.149
GAATAGAA | 0.189
AGACCGAA | 0.148
CTGCTAAG | -0.279
AACAGCGT | 0.05
CAAACCCC | -0.178

Sequence | PBM E-score
CGTGACGC | 0.436
AATCAGCT | 0.186
ACAAAGAA | 0.247
GAATAAGC | -0.0595
GATCGGAA | -0.108
ATTAACTG | 0.24
GATAATGC | 0.0433
GTCTCCTA | -0.133
CTGAGGCC | -0.161
TGCTAGAA | -0.0779
AGTTGCTA | 0.102
CAGACACA | 0.0923
CACGGGCG | -0.139
CTAGGGTC | -0.241
AGGCACAG | -0.0933
ATCGGTAA | 0.135
AGCCTTGA | -0.0193
CGAATAAA | 0.154
CGAGGCAA | 0.151
TCACTCGA | 0.158
CGCACGCA | -0.056
CAGGGACA | -0.119
